Source: US20090011988A1 (Genentech, published 2009)

T1: human IGFBP-1 (human, UniProt P08833 26-259)
T1 sequence (looked up): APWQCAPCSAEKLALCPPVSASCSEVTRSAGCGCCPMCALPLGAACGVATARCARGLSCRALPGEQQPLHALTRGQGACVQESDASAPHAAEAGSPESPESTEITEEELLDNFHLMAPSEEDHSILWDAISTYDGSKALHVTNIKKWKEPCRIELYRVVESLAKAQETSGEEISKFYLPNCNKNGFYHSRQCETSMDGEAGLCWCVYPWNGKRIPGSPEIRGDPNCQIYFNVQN


What was measured:
human IGFBP-1 = target: T1, human IGFBP-1; experiment: competitive phage ELISA
Procedure: (§1) E. coli cells (XL1-Blue, Stratagene) freshly transformed with phagemid vector were grown overnight in 5 mL 2YT medium (Sambrook et al., supra) in the presence of M13-VCS helper phage (Stratagene). Phage particles were harvested and resuspended in PBS buffer as described in Lowman, H. B., “Phage Display of Peptide Libraries on Protein Scaffolds,” in Cabilly, S. (ed.), Combinatorial Peptide Library Protocols (Humana Press Inc.: Totowa, N.J., 1998), pp. 249-264. Then phage concentrations were normalized to yield a maximal ELISA signal of 0.2-0.4 for each mutant (Lowman, in Cabilly, S. (ed.), supra). Threefold serial dilutions of soluble competitor were prepared on non-absorbent microtiter plates (Nunc, F, 96 wells) with binding buffer (0.5% TWEEN 20%/PBS) containing phage at the previously determined concentrations. […] After blocking, the plates containing immobilized target were washed with 0.05% TWEEN™/PBS buffer and subsequently incubated with 80 μl/well of the premixed phage-competitor solutions for 1 hour at room temperature. […] IC₅₀ values were determined by fitting the binding data to a generic saturation curve (Lowman, in Cabilly, S. (ed.), supra). At least two individual clones of each IGF-1 mutant were assayed. Numbers in Table XIII represent mean±standard deviation of individually assessed IC₅₀ values.

[1] = target: recombinant human IGFBP-3 (human); experiment: competitive phage ELISA
Procedure: as §1

Row | Binder | IC50 (human IGFBP-1) [nM] | IC50 [1] [nM]
1 | IGF-1 S1A displayed on phage (ligand, bacteriophage M13, range […]; G1S-A70V background) [letters of about 80 residues with changes not shown]SGGGSGSGDFDYEKMANANKGAMTENADENALQSDAKGKLDSVATDYGAAIDGFIGDVSGLANGNGATGDFAGSNSQMAQVGDGDNSPLMNNFRQYLPSLPQSVECRPFVFSAGKPYEFSIDCDKINLFRGVFAFLLYVATFMYVFSTFANILRNKES | 5.2 | 0.91
2 | IGF-1 S1G displayed on phage (ligand, bacteriophage M13, range […]; S1G on G1S-A70V restores Gly1, leaving A70V) [letters of about 80 residues with changes not shown]SGGGSGSGDFDYEKMANANKGAMTENADENALQSDAKGKLDSVATDYGAAIDGFIGDVSGLANGNGATGDFAGSNSQMAQVGDGDNSPLMNNFRQYLPSLPQSVECRPFVFSAGKPYEFSIDCDKINLFRGVFAFLLYVATFMYVFSTFANILRNKES | 11.2 | 0.99
3 | des(1-2)-IGF-1 displayed on phage (ligand, bacteriophage M13, range […]) [letters of about 60 residues not shown]SGGGSGSGDFDYEKMANANKGAMTENADENALQSDAKGKLDSVATDYGAAIDGFIGDVSGLANGNGATGDFAGSNSQMAQVGDGDNSPLMNNFRQYLPSLPQSVECRPFVFSAGKPYEFSIDCDKINLFRGVFAFLLYVATFMYVFSTFANILRNKES | 5 | 0.53
